Several values for one entry are separate records, joined by “and”; a condition that tells them apart may be missing. Equal entries are not always repeated. About 50,000 (12%) of roughly 420,000 compounds were called active. This list was built around the results that the source calls inconclusive (neither active nor inactive); the mix of calls is not that of the screen. Calls come from the whole dose curve; as a rule, active = well fitted inhibition curve with a large enough effect; inconclusive = small, poorly fitted or top-dose-only effect; inactive = flat fitted curve, though single readings scatter. A potency beside an inconclusive call is a rough fit, not a confirmed value. Where a SMILES comes first, the peptide text is derived from it. [ ]: non-standard residue; d: D form. ξ: configuration not given here. ξM = CSCCC(N)C(=O)O
Assay: qHTS for Inhibitors of human tyrosyl-DNA phosphodiesterase 1 (TDP1): qHTS in cells in presence of CPT; note: nearly all actives have a fitted effect of over 55% in size
Conditions: chicken DT40 Tdp1-/-;hTDP1 cells + 20 nM CPT, ATP luminescence, 48 h; activity change, negative = growth inhibition: at 46.2 µM (top of the series) unless noted
In short: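 Chicken DT40 Tdp1-/- cells complemented with human TDP1, 400 cells/well, exposed to compounds plus 20 nM camptothecin for at least 48 h at 37 C; viability read as ATP content by CellTiter-Glo luminescence.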
% is set by controls: 0 for no effect and ±100 for the full control effect; potency is the fitted concentration of half-maximal effect; tags give direction and shape of the fitted curve.

Row | SMILES | Potency | activity change, negative = growth inhibition
1 | COC(=O)c1ccc(N2C(c3cc(OC)cc(OC)c3)=Cc3ccc(OC)cc3C2CC(=O)c2ccco2)cc1 (configuration not stated) | inconclusive: 29.1 µM [inhibitor, single point] | –
2 | CCCCC(=O)N(C)c1c(C)nc2ccc(C(=O)N3CCNC(=O)C3)cn12 | inactive | –
3 | O=C(Cc1ccc([N+](=O)[O-])cc1)N/N=C/c1ccccc1F | inactive | –
4 | COc1cccc(C2CC(C(F)(F)F)n3ncc(C(=O)NCC4CCCO4)c3N2)c1 (configuration not stated) | inconclusive: 6.51 µM [inhibitor, partial curve, poor fit] | –
5 | CCc1nnc(NC(=O)c2nc(Cl)ccc2Cl)s1 | inactive | –
6 | C[C@H](CO)N1C[C@H](C)[C@@H](CN(C)S(=O)(=O)c2ccc(F)cc2)Oc2c(NC(=O)Nc3ccc(C(F)(F)F)cc3)cccc2C1=O | inconclusive: 29.1 µM [inhibitor, single point] | –
7 | COc1ccc(S(=O)(=O)N/N=C(/C)c2ccc(C)o2)cc1 | inactive | –
8 | CCOc1ccccc1NC(=S)Nn1cnnc1 | inconclusive: 18.4 µM [inhibitor, single point] | –
9 | CCN(CC)C(=O)c1cccc(-c2csc(C(O)c3ccc(OC)cc3)n2)c1 (configuration not stated) | active: 16.4 µM | –
10 | O=C(COC(=O)/C=C/c1cccc(F)c1)NC1CCCC1 | – | inconclusive: -31.8% [inhibitor]
11 | CCOC(=O)c1oc2ccccc2c1NC(=O)c1ccc(S(=O)(=O)N2CCCC2)cc1 | inactive | –
12 | Cc1nnc(NC(=O)c2ccc(S(=O)(=O)N(C)Cc3ccccc3)cc2)o1 | inconclusive: 16.4 µM [inhibitor, single point] | –
13 | CC(C)CNC(=O)C(=O)NC1CCCC1 | inactive | –
14 | Cn1c(O)c(N=NC(=S)Nc2ccccc2F)c2cc(S(=O)(=O)N3CCOCC3)ccc21 | active: 5.17 µM | –
15 | Cc1ccccc1OC(C)C(=O)NCCC1=CCCCC1 (configuration not stated) | inconclusive: 14.6 µM [inhibitor, partial curve, poor fit] | –
16 | CCCCCCCCCC(=O)N[C@@H]1c2cc(OC)c(OC)cc2C[C@H]1OCc1ccccc1 | inactive | –
17 | CC(C)(C)NC(=O)NC(=O)COC(=O)COc1ccc(Cl)cc1Cl | active: 18.4 µM | –
18 | COCCCn1c(-c2ccccc2)nc2ccccc2c1=O | inconclusive: 23.1 µM [inhibitor, single point] | –
19 | CCN(CC)C(=O)C1=C(C)N(Cc2ccc(OC)cc2)C(=O)C(CC(=O)NC2CCCC2)C1 (configuration not stated) | inactive | –
20 | Cc1ccc(NC(=O)CCC(=O)N/N=C/c2cc([N+](=O)[O-])ccc2O)cc1 | inconclusive: 25.9 µM [inhibitor, single point] | –
21 | Cc1cc(C)cc(N2C(N)=NC(N)=NC2c2cccc(Cl)c2)c1 (configuration not stated) | inconclusive: 23.1 µM [inhibitor, single point] | –
22 | O=C(NCc1cccs1)C(=O)NCC(c1ccco1)N1CCN(c2ccc(F)cc2)CC1 (configuration not stated) | inconclusive: 23.1 µM [inhibitor, single point] | –
23 | O=C1CC(=O)OC(c2ccc([N+](=O)[O-])cc2)O1 | active: 3.26 µM | –
24 | CCN(CC)CCNCc1cc(Br)ccc1OCC(=O)NCc1ccccc1 | inactive | –

Row | SMILES | Potency | activity change, negative = growth inhibition
25 | CC1(C)CCC(C)(C)c2cc(NC(=O)c3ccc(C(=O)O)cc3)ccc21 | inconclusive: 29.9 µM [inhibitor, single point] | –
26 | CN(N=Cc1ccccc1O)c1ccc2ccccc2n1 | inactive | –
27 | COC(=O)CNC(=O)C(CCSC)NC(C)=O (configuration not stated) (Ac-[ξM]-Gly-OMe) | inactive | –
28 | COc1ccc2c(c1)[nH]c1c(=O)n(CCC3=CCCCC3)cnc12 | inconclusive: 32.6 µM [inhibitor, single point] | –
29 | CCOC(=O)[C@]12Cc3c(cc(OC)c(OC)c3OC)[C@H]1N(Cc1ccccc1)C(=O)c1cc(OC)ccc12 | inconclusive: 23.1 µM [inhibitor, single point] | –
30 | N#C/C(=C/C1=C(N2CCOCC2)C(=C/c2ccc(Cl)cc2Cl)/CC1)C(=O)Nc1ccccc1F | inconclusive: 8.2 µM [inhibitor, partial curve] | –
31 | Cc1cc(C(=O)Nc2sc3c(c2C#N)CCC(C)C3)no1 (configuration not stated) | inconclusive: 23.1 µM [inhibitor, single point] | –
32 | CCn1c(CO)nc2c1c(=O)[nH]c(=O)n2Cc1ccccc1 | inconclusive: 0.58 µM [inhibitor, single point] | –
33 | N#CC(=C1Nc2ccccc2N1)S(=O)(=O)c1ccccc1 | inconclusive: 25.9 µM [inhibitor, single point] | –
34 | O=C(O)C1C2CCC(O2)C1C(=O)Nc1cccc(Cl)c1 (configuration not stated) | inactive | –
35 | Cn1nnc(-c2ccc(OCc3ccccc3F)cc2)n1 | – | inconclusive: -32.3% [inhibitor]
36 | CCC(CC)NC(=O)c1nn(Cc2ccccc2)c(=O)c2ccccc12 | inactive | –
37 | Oc1ccc[n+](/C=C\c2ccccc2)c1 | inconclusive: 6.51 µM [inhibitor, single point] | –
38 | c1cc(N2CCCC2)ccc1C(c1nnnn1C1CCCCC1)N1CCOCC1 (configuration not stated) | inconclusive: 29.1 µM [inhibitor, single point] | –
39 | CCc1ccc(C2CC(=O)N3CN(c4ccccc4)CSC3=C2C#N)cc1 (configuration not stated) | inconclusive: 18.4 µM [inhibitor, single point] | –
40 | COc1ccc(CCNc2oc(COc3ccccc3F)nc2C#N)cc1 | inconclusive: 32.6 µM [inhibitor, single point] | –
41 | CC(C)OP(=O)(c1ccc(N(C)C)cc1)C(O)c1ccc(C(C)C)cc1 (configuration not stated) | inactive | –
42 | O=c1c2ccccc2oc2c1oc1ccccc12 | inconclusive: 29.1 µM [inhibitor, single point] | –
43 | Cc1ccc(S(=O)(=O)N2CCN(Cc3nc4ccc(C)cc4o3)CC2)c(C)c1 | inconclusive: 29.1 µM [inhibitor, single point] | –
44 | Cc1nc2ccc(S(=O)(=O)NCC(=O)Nc3ccc(F)cc3F)cc2s1 | inactive | –
45 | Cc1ccccc1OCCn1c(CCNC(=O)C2CCCCC2)nc2ccccc21 | inconclusive: 29.1 µM [inhibitor, single point] and inconclusive: 35.5 µM [inhibitor, single point] | –
46 | O=C(NCC1CCCO1)c1ccc(COc2ccccc2Br)cc1 (configuration not stated) | inconclusive: 18.4 µM [inhibitor, single point] | –
47 | CCCC(=O)NC(=S)Nc1ccc(S(=O)(=O)Nc2ccc(OCC)cc2)cc1 | active: 11.6 µM | –
48 | CCOc1ccc(CCN2C(=O)C(=O)N([C@@H](CC(C)C)CN3CCC[C@@H]3CN3C(=O)C(=O)NC[C@@H]3Cc3ccccc3)C[C@@H]2Cc2ccc(O)cc2)cc1 | inconclusive: 29.1 µM [inhibitor, single point] | –

Row | SMILES | Potency | activity change, negative = growth inhibition
49 | COc1ccc(N2C(=O)CC(Nc3ccc(C)cc3)C2=O)cc1 (configuration not stated) | inactive | –
50 | CC(C)(C)Cc1c(-c2cccc(Br)c2)nc2ccc(Cl)cn12 | inconclusive: 23.1 µM [inhibitor, single point] | –
51 | COc1cc(C(=O)Oc2cc(C)cc(C)c2)cc(OC)c1OC | inactive | –
52 | CC1NC(C)(C)Cc2c1ccc1ccccc21 (configuration not stated) | inactive | –
53 | COC(=O)C1=C(C(=O)OC)[C@@H]2N(C)c3ccc(OC)cc3[C@@]23C[C@@H](C(=O)OC)N(C(=O)C2CCC2)C3=N1 | – | inconclusive: -33.1% [inhibitor]
54 | CCOC(=O)c1c(C)[nH]c(C)c1S(=O)(=O)N(C)CC(=O)Nc1ccc(C)cc1Br | inconclusive: 29.1 µM [inhibitor, single point] | –
55 | O=C(NCCc1c[nH]c2ccccc12)/C(=C\c1cccnc1)NC(=O)c1ccccc1Br | inconclusive: 16.4 µM [inhibitor, single point] | –
56 | CCc1ccccc1-n1nnc(-c2nsc(NC(=O)c3ccc(C)c(C)c3)n2)c1C | inconclusive: 23.1 µM [inhibitor, single point] | –
57 | N#Cc1ncccc1CCc1cccc(Cl)c1 | inactive | –
58 | CCc1ccc(OCCn2c(C3CC(=O)N(Cc4ccc(F)cc4)C3)nc3ccccc32)cc1 (configuration not stated) | active: 20.6 µM | –
59 | COC(=O)c1ccccc1C(=O)N1CCOc2ccc(CN3CCN(c4ccccn4)CC3)cc2C1 | – | inactive: 1.91% [at 9.04 µM]
60 | O=C(Nc1ccc(F)cc1)c1cccc2c1C(=O)N(CC1CCCO1)C2 (configuration not stated) | inactive | –
61 | CCc1nnc(NC(=O)c2ccncc2)s1 | inactive | –
62 | CC[C@]12c3[nH]c4cc(-c5ccco5)ccc4c3CCN1C(=O)[C@@H](CC(=O)NCCC1=CCCCC1)C[C@@H]2C(=O)N1CCN(C(=O)c2ccco2)CC1 | active: 20.6 µM | –
63 | Cn1cc(/C=C(\C#N)C(=O)Nc2ccccc2O)c2ccccc21 | inconclusive: 29.1 µM [inhibitor, single point] | –
64 | Cc1cc(C)cc(NC(=O)CSc2nc3nccnc3c(=O)n2CCc2c[nH]c3ccccc23)c1 | active: 14.6 µM | –
65 | Cc1cccc(-n2ncc3c2CCCC3NC(=O)CCCN2CCCCC2=O)c1C (configuration not stated) | inactive | –
66 | Cc1ccc(C(c2nnnn2Cc2ccccc2)N2CCN(Cc3ccccc3)CC2)cc1 (configuration not stated) | inconclusive: 29.1 µM [inhibitor, single point] | –
67 | CC(C)CCn1c(/C=C/c2ccccc2)nc2ccccc21 | active: 16.4 µM | –
68 | Cc1ccc(-c2cn3ccc(C)cc3n2)cc1 | inconclusive: 23.1 µM [inhibitor, single point] | –
69 | CN1C(=O)/C(=C/c2ccccc2OCc2ccc(F)cc2)N(C)C1=S | inconclusive: 20.6 µM [inhibitor, single point] | –
70 | CCCCn1c(N)c(N(CCC(C)C)C(=O)C2CCN(C(=O)c3ccccc3C)CC2)c(=O)[nH]c1=O | inactive | –
71 | COC(=O)Cn1c(=NC(=O)c2ccc(S(=O)(=O)N3CCOCC3)cc2)sc2cc(S(N)(=O)=O)ccc21 | inactive | –
72 | O=C(N/N=C/c1cccc(O)c1)c1ccc(-n2cnnn2)cc1 | inactive | –
